Experimental data as given in PubChem BioAssay AID624296 (National Center for Advancing Translational Sciences (NCATS), 2012).
Among all 350,000 compounds or so, about 9,900 (2.8%) were called active. This list was built around the results that the source calls inconclusive (neither active nor inactive); the mix of calls is not that of the screen. The call rests on the fitted dose curve; in most records, active means well fitted activation curve with a large enough effect; inconclusive means small, poorly fitted or top-dose-only effect; inactive means no such curve, though single readings can be large or run the other way. Potencies of inconclusive entries are left out as doubtful fits.

Test: A quantitative high throughput screen for small molecules that induce DNA re-replication in MCF 10a normal breast cells. Further: nearly all actives have a fitted effect of over 50% in size.
Conditions: MCF 10A DNA re-replication, Hoechst nuclear intensity, 48 h; series mostly up to 46.1 µM
Potency means the concentration at half of the fitted maximal effect; tags describe the fitted curve by direction and shape.

Row | Compound | Potency
1 | CCc1nnc(NC(=O)C2Cc3ccccc3CN2S(=O)(=O)c2c(C)c(C)cc(C)c2C)s1 (stereo not given) | inconclusive [activator, single point]
2 | CCn1c(=O)cc(C(=O)OC)sc1=Nc1ccc(F)c(F)c1 | inconclusive [activator, single point]
3 | O=C(O)Cc1sc(Nc2ccc(F)cc2)nc1-c1cccs1 | active: 20.6 µM
4 | CC(C)Oc1ccc(S(=O)(=O)N2CCOCC2)cc1NC(=O)C1CCC1 | inactive
5 | CC(C)CN(C(=O)c1ccc([N+](=O)[O-])s1)c1c(N)n(Cc2ccccc2)c(=O)[nH]c1=O | inconclusive [activator, partial curve, poor fit]
6 | CNc1nc(C23CC4CC(CC(C4)C2)C3)cs1 | inconclusive [activator, partial curve, poor fit]
7 | C[C@]12CCC[C@H](O1)c1c(cc3c(c1O)C(=O)c1c(O)cc(O)cc1C3=O)O2 | inconclusive [activator, single point]
8 | CCN(CC)S(=O)(=O)c1ccc(NC(=O)c2ccccc2N(C)S(C)(=O)=O)cc1 | inactive
9 | O=S(=O)(Nc1nc2ccccc2s1)c1cnc(Cl)c(Br)c1 | inconclusive [activator, single point]
10 | O=C(/C=C/c1ccccc1)Nc1ccc(S(=O)(=O)N2CCOCC2)cc1 | inactive
11 | CCN(CC)CCCN(C(=O)c1ccccc1F)c1nc(-c2ccc(OC)cc2)cs1 | inconclusive [activator, single point]
12 | Cc1ccc(-n2c(=O)c3sccc3n(Cc3cc(=O)n4cc(Cl)ccc4n3)c2=O)cc1F | inactive
13 | CN(C(=O)CSc1cc(C(=O)c2nccn2C)c2ccccc2n1)c1ccccc1 | inactive
14 | CSCCC(NC(=O)c1ccccc1)C(=O)N1CCN(Cc2ccc(Cl)cc2)CC1 (stereo not given) | inconclusive [activator, single point]
15 | CC1CCCN(C(=S)Nc2ccc(S(=O)(=O)N3CCCCC3)cc2)C1 (stereo not given) | inconclusive [activator, partial curve, poor fit]
16 | OCC1(Cc2ccccc2)CCN(Cc2cccc(F)c2F)CC1 | inactive
17 | Cc1ccc(C(=O)NC(=S)NNS(=O)(=O)c2ccccc2)cc1 | inconclusive [activator, single point]
18 | O=C(NCCN1CCOCC1)Nc1ccc(F)cc1 | inactive
19 | COc1ccc(F)cc1CN1CCN(c2ncnc3scc(-c4ccccc4)c23)CC1 | inconclusive [activator, single point]
20 | N#Cc1c(N2CCCCC2)nc(N)c2c(N)nc3c(c12)CC(CCl)O3 (stereo not given) | inconclusive [activator, single point]
21 | COc1ccc(-n2c(=S)[nH]c3c(oc4ccccc43)c2=O)cc1 | inconclusive [activator, partial curve, poor fit]
22 | O=Cc1c(Sc2ccccc2)nc2ccccn2c1=O | inconclusive [activator, single point]
23 | COc1ccc(C(=O)OCC(=O)NCCN2C(=O)CSC2=O)cc1 | inactive

Row | Compound | Potency
24 | COc1cccc(OCCSc2nc3ccccc3c(=O)[nH]2)c1 | inconclusive [activator, partial curve, poor fit]
25 | Cc1cc(-c2nc3ccccc3s2)ccc1N | active: 20.6 µM
26 | Cc1nn(-c2ccc(F)cc2)c(Cl)c1/C=C/C(=O)OCC(=O)Nc1c(F)c(F)c(F)c(F)c1F | inconclusive [activator, full curve, poor fit]
27 | N=c1c2c3c(sc2nc2n1CCCCC2)CCCCC3 | inconclusive [activator, single point]
28 | CCOc1ccc(S(=O)(=O)N2CCN(C(=O)c3ccco3)CC2)cc1 | inactive
29 | O=C(NCC1CCN(c2ccc(S(=O)(=O)N3CCOCC3)cc2)CC1)c1ccc(Cl)cc1 | inactive
30 | COc1ccccc1OCc1ccc(C(=O)Nc2ccc(Cl)cn2)o1 | inconclusive [activator, single point]
31 | O=C(c1ccccc1)N1N=C(c2ccc(F)cc2)CC1c1ccc(F)cc1 (stereo not given) | inactive
32 | COc1ccc2c(c1)c(=O)c(Br)c(C)n2Cc1ccccc1 | inconclusive [activator, single point]
33 | O=C(Nc1cccc(C(F)(F)F)c1)N1CCC(c2nc(-c3ccc(F)cc3)no2)CC1 | inconclusive [activator, partial curve, poor fit]
34 | C=CCNC(=O)CN1CCC(NC(=O)c2ccco2)CC1 | inactive
35 | CCOC(=O)c1sc(NC(=O)CC)nc1C | inconclusive [activator, partial curve, poor fit]
36 | O=C(Nc1ccc(F)cc1)c1ccc(NC(=O)C2CCCO2)cc1 (stereo not given) | inactive
37 | Cc1cc2c3c([nH]c2cc1S(=O)(=O)NCc1ccc(CN2CCCCCC2)o1)CC(C)(C)CC3=O | inconclusive [activator, single point]
38 | CCCCCNc1nc(N2CCCC2)c2c(c1C#N)CCN(C)C2 | active: 11.2 µM
39 | Cc1cccc(CN2CCN(CC(=O)NCCCN3CCCC3=O)C2=O)c1 | inconclusive [activator, partial curve]
40 | O=C(CSc1cccc2cccnc12)OCC(=O)c1ccc(Br)cc1 | inconclusive [activator, single point]
41 | COC(=O)c1sccc1NC(=O)c1ccc(C(C)C)cc1 | inconclusive [activator, partial curve]
42 | CCCCCCCCCCCCCCCCCCOC[C@H](COP(=O)([O-])OCC[N+](C)(C)C)OC | inconclusive [activator, partial curve, poor fit]
43 | COc1ccc(S(=O)(=O)NCc2cccnc2)cc1C | inconclusive [activator, single point]
44 | C/C(=C\c1ccc2c(c1)OCO2)C(=O)c1c(C)cc(C)[nH]c1=O | inactive
45 | CC(C)c1ccccc1NC(=O)Cn1c(/C=C/c2ccccc2)nc2ccccc21 | active: 10.3 µM
